# The whole screen tested about 360,000 compounds, of which about 660 (0.18%) were called active. This list was built around the results that the source calls inconclusive (neither active nor inactive); the mix of calls is not that of the screen. Calls come from the whole dose curve; as a rule, active = well fitted inhibition curve with a large enough effect; inconclusive = small, poorly fitted or top-dose-only effect; inactive = no such curve, though single readings can be large or run the other way. No potency is given beside an inconclusive call; the fits are too rough.
# Molecular target: Rap guanine nucleotide exchange factor 4 (Homo sapiens) (UniProt Q8WZA2)
# Test: qHTS for Antagonist of cAMP-regulated guanine nucleotide exchange factor 2 (EPAC2): primary screen; note: nearly all actives have a fitted effect of over 45% in size
# Conditions: EPAC2 GEF exchange of Rap1B-BODIPY-GDP, fluorescence; activity, negative = inhibition: at 114 µM (top of the series) unless noted
# % is set by controls: 0 for no effect and ±100 for the full control effect; potency is the fitted concentration of half-maximal effect; tags give direction and shape of the fitted curve.
# Sequence of UniProt Q8WZA2 (Q8WZA2 whole entry, looked up): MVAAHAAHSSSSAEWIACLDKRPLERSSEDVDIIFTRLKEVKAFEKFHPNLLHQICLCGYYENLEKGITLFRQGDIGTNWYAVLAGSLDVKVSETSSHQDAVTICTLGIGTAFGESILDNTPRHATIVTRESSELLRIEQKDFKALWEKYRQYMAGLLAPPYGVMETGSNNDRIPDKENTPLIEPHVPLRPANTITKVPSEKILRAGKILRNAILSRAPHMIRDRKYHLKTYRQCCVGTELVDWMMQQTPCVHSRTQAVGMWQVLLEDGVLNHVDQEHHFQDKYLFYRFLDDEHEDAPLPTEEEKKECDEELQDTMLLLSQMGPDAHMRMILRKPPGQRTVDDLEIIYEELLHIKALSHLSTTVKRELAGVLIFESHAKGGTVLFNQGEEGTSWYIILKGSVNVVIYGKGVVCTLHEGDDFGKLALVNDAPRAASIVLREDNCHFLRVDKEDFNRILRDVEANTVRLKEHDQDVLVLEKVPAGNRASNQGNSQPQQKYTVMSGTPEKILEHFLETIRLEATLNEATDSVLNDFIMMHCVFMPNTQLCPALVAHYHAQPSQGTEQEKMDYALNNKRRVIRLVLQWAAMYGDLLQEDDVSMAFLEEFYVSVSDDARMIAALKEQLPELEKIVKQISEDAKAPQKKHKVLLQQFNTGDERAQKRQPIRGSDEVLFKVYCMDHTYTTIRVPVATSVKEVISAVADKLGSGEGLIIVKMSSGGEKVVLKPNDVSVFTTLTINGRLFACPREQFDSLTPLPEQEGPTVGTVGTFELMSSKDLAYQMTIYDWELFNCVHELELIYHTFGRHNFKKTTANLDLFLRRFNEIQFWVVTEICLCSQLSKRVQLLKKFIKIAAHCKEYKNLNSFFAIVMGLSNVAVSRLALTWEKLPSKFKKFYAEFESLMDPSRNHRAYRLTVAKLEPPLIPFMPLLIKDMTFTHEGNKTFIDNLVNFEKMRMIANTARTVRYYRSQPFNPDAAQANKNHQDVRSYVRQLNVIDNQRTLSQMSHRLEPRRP
Compound,Potency,"activity, negative = inhibition"
O=C1c2ccccc2CCC12OC2c1ccc([N+](=O)[O-])cc1 (stereo not given),"inconclusive [inhibitor, single point]",–
O=C(c1ccc(Cl)cc1)C1CCCN(Cc2cnn(-c3ccccc3)c2)C1 (stereo not given),–,inactive: -16.2%
CC(C)(C(=O)N1CCC1(C)C(=O)NS(=O)(=O)c1ccc(Cl)s1)c1ccccc1 (stereo not given),"inconclusive [inhibitor, partial curve]",–
CSC1=NS(=O)(=O)c2c(C)nn(C)c2S1,–,inactive: 1.35%
CCOC(=O)CN1C(=O)CN(c2ccc(C)cc2)C1=O,–,inactive: 10.7%
O=C(Nc1ccc(F)cc1)C(c1ccncc1)N1CCN(CC(=O)N2CCCC2)CC1 (stereo not given),–,inactive: 4.32%
Fc1ccc(NC(=S)Nc2cccc3ccccc23)cc1F,–,inactive: 0.582%
O=S(=O)(Nc1nc(SCc2ccc(Cl)cc2)n[nH]1)c1ccc(F)cc1,"inconclusive [inhibitor, partial curve]",–
CN(Cc1ccc(F)cc1)C(=O)C(c1ccccc1)c1ccccc1,"inconclusive [inhibitor, partial curve]",–
CN(CC(=O)Nc1ccc(Cl)c(C(F)(F)F)c1)C(=O)C1CC(=O)N(c2ccc3c(c2)OCCO3)C1 (stereo not given),–,inactive: 4.21%
COc1ccc(C2CC(c3ccc(F)cc3)n3nc(NS(C)(=O)=O)nc3N2)cc1 (stereo not given),"inconclusive [inhibitor, single point]",–
COC(=O)c1cn(C(=O)c2cc(C)cc(C)c2)c2ccccc12,"inconclusive [inhibitor, full curve]",–
CCOc1ccc(S(=O)(=O)Nc2ccc3c(c2)OCO3)cc1,"inconclusive [inhibitor, partial curve]",–
Cc1cc(=O)n2[nH]c(C(=O)O)nc2n1,"inconclusive [inhibitor, single point]",–
CCOC(=O)c1oc2ccc(S(=O)(=O)n3nc(-c4cc(OC)c(OC)c(OC)c4)cc3N)cc2c1C,–,inactive: 5.27%
COc1ccc(CN2CCC(Cc3ccccc3)CC2)cc1OC,–,inactive: 1.15%
O=C(N/N=C/c1ccncc1)c1cc2ccccc2cc1O,–,inactive: -8.57%
O=C(CSc1cccc[n+]1[O-])Nc1ccccc1Oc1ccccc1,–,inactive: -17.5%
CCC(C)(C)c1ccc(OCC(=O)N(C)C)c(C(C)(C)CC)c1,"inconclusive [inhibitor, full curve]",–
COc1ccc(CNC(=O)c2cc(-c3cc(C)cc(C)c3O)n[nH]2)cc1,"inconclusive [inhibitor, single point]",–
NC(=O)c1nsc(C(=O)N(CC(=O)NC2CCCCC2)c2ccc(Cl)cc2)c1N,"inconclusive [inhibitor, single point]",–
CCCCSc1nnc(CSc2ncccn2)n1C,"inconclusive [inhibitor, single point]",–
Cc1ccc2nc(SCC(=O)c3c(N)n(C4CC4)c(=O)[nH]c3=O)[nH]c2c1,active: 70.8 µM,–
OCC(CBr)(CBr)CBr,–,inactive: -17.8%

Compound,Potency,"activity, negative = inhibition"
Cc1ccc(CC2(C)C(=O)Nc3ccc(OC(F)(F)F)cc32)cc1 (stereo not given),"inconclusive [inhibitor, partial curve]",–
Cc1ccc(Cl)cc1NC(C#N)c1ccccc1 (stereo not given),"inconclusive [inhibitor, full curve]",–
CS(=O)(=O)c1ccc(NS(=O)(=O)c2ccc(Cl)c(C(=O)NCc3ccco3)c2)cc1,–,inactive: 6.25%
CCn1c(SCC(=O)Nc2ccc(OC)cc2)nc2nc3c(cc2c1=O)CCCC3,"inconclusive [inhibitor, single point]",–
O=C(O)C(O)C(O)C(O)C(O)C(=O)O (stereo not given) (tested in a mixture with another compound),"inconclusive [inhibitor, single point]",–
N#CC1=C2N=C(N)c3ccccc3N2C2=C(C(=O)CCC2)C1c1cccc(Cl)c1 (stereo not given),"inconclusive [inhibitor, full curve]",–
Cc1cccc(N(Cc2ccccc2)C(=O)CCl)c1,"inconclusive [inhibitor, full curve]",–
CC1Cc2cc(/C=C3/SC(=S)NC3=O)ccc2O1 (stereo not given),"inconclusive [inhibitor, partial curve]",–
C=CCN(C/C(=N\O)c1sc(C(=O)OCC)nc1C)c1cccc(Br)c1,"inconclusive [inhibitor, partial curve]",–
CCN(CC)c1ccc2c(c1)oc(=O)c1c(Cl)cc(=O)oc12,–,inactive: 45.7%
CCO[C@H]1OC(C(=O)NCc2ccccc2)=C[C@@H](c2ccc(C(F)(F)F)cc2)[C@@H]1CCCO,"inconclusive [inhibitor, full curve]",–
COc1ccccc1CC(=O)Nc1ccc([N+](=O)[O-])cc1O,"inconclusive [inhibitor, partial curve]",–
Cc1ccc(S(=O)(=O)CC(=O)Nc2nccs2)cc1,–,inactive: 4.82%
CCC(C)(C)C1CCC2(CC1)NC(=O)N(CC(=O)N1CCN(c3ccccc3OC)CC1)C2=O (stereo not given),–,inactive: 15.9%
CCOC(=O)c1cc(OC(C)=O)c2ccc(OC)c(OC)c2c1,"inconclusive [inhibitor, partial curve]",–
COc1ccc(-c2csc(NC(=O)c3ccccc3NS(=O)(=O)c3ccc(C)cc3)n2)cc1,"inconclusive [inhibitor, full curve]",–
Cn1ccc2ccc(C3=CC(=O)C[C@H](c4ccc(F)cc4)C3)cc21,–,inactive: 8.57%
COc1ccc(CCNC(=O)[C@H](C)NC(=O)N2CCn3c2nc2ccccc23)cc1OC,–,inactive: 1.85%
O=C1N(Cc2cccc(Cl)c2)C[C@@H]2C[C@@H](c3cccn3-c3cccnc3)N3CCC[C@@]123,–,inactive: -6.35%
COc1cccc2c1Oc1ncccc1N(C(=O)CCC(=O)NCc1ccc(F)cc1)C2,"inconclusive [inhibitor, partial curve]",–
FC(F)(F)Oc1ccccc1C(c1nnnn1Cc1ccccc1)N1CCN(C/C=C/c2ccccc2)CC1 (stereo not given),"inconclusive [inhibitor, full curve, poor fit]",–
N#C/C(=C/C1=C(N2CCOCC2)C(=C/c2cccc([N+](=O)[O-])c2)/CC1)C(=O)Nc1ccccc1F,active: 79.4 µM,–
Cc1ccc(Cn2c(=N)c(C(=O)NC3CCCCC3)cc3c(=O)n4ccccc4nc32)cc1,–,inactive: 9.86%
Cc1nn(-c2ccc(Cl)c(Cl)c2Cl)c(=O)c2ccccc12,"inconclusive [inhibitor, partial curve, poor fit]",–

Compound,Potency,"activity, negative = inhibition"
COc1cc(O)c(C(CC(=O)N2CCCCC2)c2ccc3c(c2)OCO3)c(OC)c1 (stereo not given),"inconclusive [inhibitor, partial curve]",–
COc1ccc(/C=C2\N=C(SC)N(c3ccccc3OC)C2=O)cc1,active: 17.8 µM,–
CCCN1C(=O)c2cc(C(=O)Nc3ccccc3CC)ccc2C1O (stereo not given),"inconclusive [inhibitor, single point]",–
Cc1ccc(S(=O)(=O)N2CCN(C(=O)CCOc3cc(C)ccc3C)CC2)cc1,"inconclusive [inhibitor, single point]",–
CCOC(=O)C1(Cc2cccc(Cl)c2)CCCN(C(=O)C2CC2)C1 (stereo not given),"inconclusive [inhibitor, partial curve]",–
COc1ccccc1Nc1nc(-c2sc(N)nc2C)cs1,–,inactive: 2.42%
O=C(O)CCCCN1C(=O)/C(=C\c2ccc(OCc3ccccc3)c(OCc3ccccc3)c2)SC1=S,"inconclusive [inhibitor, partial curve]",–
O=c1cc(CCl)nc2sc3ccccc3n12,–,inactive: -5.85%
CCOC(=O)c1c(C)[nH]c(C(=O)COC(=O)C(C)Oc2ccc(Cl)cc2Cl)c1C (stereo not given),"inconclusive [inhibitor, full curve, poor fit]",–
CCCCN(C=O)c1c(CC)nc2c(OCc3ccc(C(F)(F)F)cc3)cccn12,"inconclusive [inhibitor, partial curve]",–
CC(=O)OCC1=C(C(=O)O)N2C(=O)[C@@H](NC(=O)Cc3cccs3)[C@H]2SC1,–,inactive: 9.06%
COc1cc(S(=O)(=O)N2CCOCC2)ccc1NC(=O)COC(=O)COc1ccccc1,"inconclusive [inhibitor, partial curve]",–
COc1ccccc1CCC(=O)OCC(=O)Nc1cc(S(=O)(=O)N2CCOCC2)ccc1C,–,inactive: 1.63%
O=C(NC1(O)C(=O)c2ccccc2C1=O)c1c(Cl)cccc1Cl,"inconclusive [inhibitor, partial curve]",–
O=C(NCCC1=CCCCC1)C(=O)NCC1OCCCN1S(=O)(=O)c1cc(F)ccc1F (stereo not given),–,inconclusive: -5.61% [inhibitor]
Cc1c(C(=O)N(C)Cc2ccc(F)cc2)sc(=O)n1Cc1ccc(Cl)c(Cl)c1,–,inactive: -13.1%
CC(=O)Nc1ccc(SC[C@H](C)CN2CC[C@H](C(C)(C)C)CCC2=O)cc1,"inconclusive [inhibitor, partial curve]",–
CC1CC(C)C[N+](=C2C=C(N3CCCC3)CC(C)(C)C2)C1 (stereo not given),–,inactive: 4.19%
CCCCC[C@@H](C)N1C[C@H](COCc2ccccc2)Oc2cc(N3CC[C@@H](N(C)C)C3)ccc2S1(=O)=O,"inconclusive [inhibitor, full curve]",–
OCCC1CN(Cc2cc(F)ccc2F)CCN1CCCc1ccccc1 (stereo not given),–,inconclusive: -13.6% [inhibitor]
CCc1ccc(OCC2c3cc(OC)c(OC)cc3CCN2C(C)=O)cc1 (stereo not given),"inconclusive [inhibitor, partial curve]",–
CC1COc2ccccc2N1S(=O)(=O)c1ccc(Cl)cc1 (stereo not given),"inconclusive [inhibitor, full curve]",–

# From PubChem BioAssay AID720708 (National Center for Advancing Translational Sciences (NCATS), 2013)
